From EP0545991B1, “PEPTIDES THAT BLOCK HUMAN IMMUNODEFICIENCY VIRUS INFECTIONS AND METHODS OF USE THEREOF” (VAHLNE, Anders, priority 1990, dated 1992)
Not every detail of the peptide structures is certain; ends, links or a residue may be inferred. Some entries repeat one wording, which the source may state once for all of them. Where a SMILES comes first, the peptide text is derived from it.

Columns and labels:
[1] = tested on: HIV; type: cell-based; details: for prevention of HIV infection by p24 levels and syncytia formation (words): Tables 3 to 6
Method: Virus at 100 50% tissue culture infectious doses (TCID50) and peptides at concentrations of 250 and 25 µg/ml were added to the cells simultaneously and incubated for 2 hours at 4°C with frequent stirring. Subsequently, the temperature was increased to 37°C and the mixtures were subjected to a second incubation for 2 hours. […] Cells, at a concentration of 5 x 10^5/ml, were then added to 24 multidish well plates at a final volume of 1.5 ml of growth medium (RPMI supplemented with 10% fetal calf serum (FCS), antibiotics and polybrene (2 µg/ml)), with the addition of peptides at dilutions of 250 or 25 µg/ml. […] As additional controls, two HIV infected cell cultures (designated pos. controls 1 and 2, Tables 3-5) and two uninfected cell cultures (designated neg. controls 1 and 2) were used.
Infected cells were continuously monitored for formation of syncytia and the growth medium supernatants were analyzed at days 9-12 p.i. for p24 antigen which is an indicator of HIV replication.
Briefly, the following protocol was used for detection of the p24 antigen. HIV p24 antigen was determined using a rabbit anti-p24 polyclonal antiserum as capture antibody and a biotinylated rabbit anti-p24 polyclonal antibody was used as detecting antibody in an avidin-horse radish peroxidase (HRP) ELISA. The sensitivity of the assay allowed detection of approximately 50 pg of p24 antigen per ml supernatant. […] Serial dilutions of the supernatants were made so as to detect p24 concentration in the most accurate range (< 2.0 absorbance units).
The number of infected cells were then determined by indirect immunofluorescence using a human HIV positive serum diluted 1/100 and FITC conjugated antihuman IgG (Bio Merieux, France) diluted 1/200.

[2] = tested on: HTLV IIIB/H9 N.Y.; test: Infectivity assay (p24 ELISA, syncytia formation, indirect immunofluorescence), HTLV-IIIB/H9 New York; type: cell-based, HIV
[3] = tested on: HTLV IIIB/H9 Denmark; test: Infectivity assay (p24 ELISA, syncytia formation, indirect immunofluorescence), HTLV-IIIB/H9 Denmark; type: cell-based, HIV
[4] = tested on: ELI1/HUT; test: Infectivity assay (p24 ELISA, indirect immunofluorescence), ELI-1/HUT; type: cell-based, HIV

## C[C@H](NC(=O)[C@@H]1CCCN1C(=O)CN)C(N)=O [GPA, Gly-Pro-Ala] (H-Gly-Pro-Ala-NH2)
[1]
  prevention of HIV infection by p24 levels and syncytia formation (words): do not inhibit HIV infectivity
[2]; 25 µg/ml, Table 6
  # OF SYNCYTIA/WELL Day 14: 85
  PERCENTAGE OF AG POS CELLS: 30-40
  p24 1/10: > 2.0 absorbance (454 nm)
  p24 1/100: 0.616 absorbance (454 nm)
  p24 1/1,000: 0.154 absorbance (454 nm)
[2]; 250 µg/ml, Table 6
  # OF SYNCYTIA/WELL Day 14: 20
  PERCENTAGE OF AG POS CELLS: 20-30
  p24 1/10: > 2.0 absorbance (454 nm)
  p24 1/100: 0.299 absorbance (454 nm)
  p24 1/1,000: 0.059 absorbance (454 nm)
[2]; Table 6
  inhibitory effect on HIV replication by p24 synthesis and syncytia formation: had no inhibitory effect on HIV replication

## N=C(N)NCCC[C@H](NC(=O)CNC(=O)[C@@H]1CCCN1C(=O)CN)C(N)=O [GPGR, Gly-Pro-Gly-Arg] (H-GPGR-NH2)
[3]; 25 µg/ml
  # OF SYNCYTIA/WELL Day 9: 16
  % OF POS CELLS: 10%
  p24 1/10: 2.262 absorbance (454 nm)
  p24 1/100: 1.133 absorbance (454 nm)
  p24 1/1,000: 0.262 absorbance (454 nm)
  p24 1/10,000: 0.093 absorbance (454 nm)
[3]; 250 µg/ml
  # OF SYNCYTIA/WELL Day 9: 13
  % OF POS CELLS: 5-10%
  p24 1/10: 2.078 absorbance (454 nm)
  p24 1/100: 1.252 absorbance (454 nm)
  p24 1/1,000: 0.368 absorbance (454 nm)
  p24 1/10,000: 0.142 absorbance (454 nm)
[1]; Tables 3-5
  infection of treated cells by p24 synthesis and syncytia formation: became infected
[1]
  prevention of HIV infection by p24 levels and syncytia formation (words): did not prevent HIV infection
[4]; 2 µg/ml
  PERCENTAGE OF POS CELLS: 10
  p24 1/10: 3 absorbance (454 nm)
  p24 1/100: 2.222 absorbance (454 nm)
  p24 1/1,000: 0.688 absorbance (454 nm)
  p24 1/10,000: 0.275 absorbance (454 nm)
[4]; 250 µg/ml
  PERCENTAGE OF POS CELLS: 10-15
  p24 1/10: 3 absorbance (454 nm)
  p24 1/100: 1.888 absorbance (454 nm)
  p24 1/1,000: 0.756 absorbance (454 nm)
  p24 1/10,000: 0.254 absorbance (454 nm)
[2]; 25 µg/ml
  # OF SYNCYTIA/WELL Day 9: 16
  # OF SYNCYTIA/WELL Day 14: >100
  % OF POS CELLS: 8-10%
  p24 1/10: 2.566 absorbance (454 nm)
  p24 1/100: 1.782 absorbance (454 nm)
  p24 1/1,000: 0.526 absorbance (454 nm)
  p24 1/10,000: 0.176 absorbance (454 nm)
[2]; 250 µg/ml
  # OF SYNCYTIA/WELL Day 9: 15
  # OF SYNCYTIA/WELL Day 14: >100
  % OF POS CELLS: 5%
  p24 1/10: 2.242 absorbance (454 nm)
  p24 1/100: 0.775 absorbance (454 nm)
  p24 1/1,000: 0.294 absorbance (454 nm)
  p24 1/10,000: 0.153 absorbance (454 nm)

## NCC(=O)N1CCC[C@H]1C(=O)NCC(=O)NCC(N)=O [GPGG, Gly-Pro-Gly-Gly] (H-GPGG-NH2)
[1]
  prevention of HIV infection by p24 levels and syncytia formation (words): do not inhibit HIV infectivity
[2]; 25 µg/ml, Table 6
  # OF SYNCYTIA/WELL Day 14: 15
  PERCENTAGE OF AG POS CELLS: 25-30
  p24 1/10: 0.933 absorbance (454 nm)
  p24 1/100: 0.11 absorbance (454 nm)
  p24 1/1,000: 0.016 absorbance (454 nm)
[2]; 250 µg/ml, Table 6
  # OF SYNCYTIA/WELL Day 14: 20
  PERCENTAGE OF AG POS CELLS: 30
  p24 1/10: 0.523 absorbance (454 nm)
  p24 1/100: 0.052 absorbance (454 nm)
  p24 1/1,000: 0.007 absorbance (454 nm)
[2]; Table 6
  inhibitory effect on HIV replication by p24 synthesis and syncytia formation: had no inhibitory effect on HIV replication
